# Measurements taken from the supplement of paper PMC12217912.
# Some of the results follow. Sequences were assembled here from the parent chain. Inactive controls read about 0.05.
# B1: TEV protease; numbered along this chain (parent)
# chain: MGESLFKGPRDYNPISSSICHLTNESDGHTTSLYGIGFGPFIITNKHLFRRNNGTLVVQSLHGVFKVKDTTTLQQHLVDGRDMIIIRMPKDFPPFPQKLKFREPQREERICLVTTNFQTKSMSSMVSDTSCTFPSGDGIFWKHWIQTKDGQCGSPLVSTRDGFIVGIHSASNFTNTNNYFTSVPKNFMELLTNQEAQQWVSGWRLNADSVLWGGHKVFMVKPEEPFQPVKEATQL
# Variants of: B1
# Test: raw area under fraction-flipped curve 0-4 h after induction (AUC4h, not background-subtracted), DNA-recorder readout of cleavage of the substrate (dimensionless); higher = more cleavage of the substrate by the protease variant
# Conditions: temperature: 34 °C; time window: 0-4 h after rhamnose induction
# Protocol: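 In vivo DNA recorder in E. coli TOP10(DE3) ΔrhaA at 34 °C. Each TEVp single-site mutant (parent TEVp 0) is paired with a single-site variant of the 7-mer TEVs (canonical ENLYFQ|S). The substrate sits between flexible linkers in a Bxb1-sfGFP-TEVs-SsrA fusion, so cleavage stabilises Bxb1 and speeds flipping of a recombination array, read by NGS. The value is the raw area under the fraction-flipped curve over 0-4 h after rhamnose induction (AUC4h), with ≥20 reads per time point. It is not background-subtracted; inactive controls average about 0.047.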
# 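Further: Bxb1 expression induced with 0.2% (w/v) L-rhamnose at OD600 near 0.5, cultures sampled hourly, flipped fraction per protease–substrate barcode pair counted by paired-end Illumina sequencing.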
Variant,area with substrate EALYFQS,area with substrate ECLYFQS,area with substrate EDLYFQS,area with substrate EELYFQS,area with substrate EHLYFQS,area with substrate EILYFQS,area with substrate EKLYFQS,area with substrate EPLYFQS,area with substrate EQLYFQS,area with substrate ERLYFQS,area with substrate ESLYFQS,area with substrate ETLYFQS,area with substrate EYLYFQS,area with substrate EFLYFQS,area with substrate EGLYFQS,area with substrate ELLYFQS,area with substrate EVLYFQS,area with substrate EWLYFQS,area with substrate EMLYFQS
V157Y,0.084,0.0911,0.0965,0.059,0.085,0.0663,0.0986,0.0956,0.0885,0.0699,0.0826,0.0865,0.0861,,,,,,
S158M,0.0407,0.0498,0.0514,0.0524,,,0.0447,0.0612,0.0602,0.0554,0.0511,,,0.0564,0.0454,0.0379,0.0519,0.0776,
S158R,0.0489,0.0583,,,0.0583,,,,,0.0465,,,0.0322,,0.0489,,0.062,,0.052
S158W,0.0496,0.0437,0.0473,0.0492,0.0316,0.0589,0.0472,,0.0507,0.0509,0.0547,0.0445,0.057,0.0442,0.0542,0.0515,0.0421,0.044,0.0468
D161E,0.0905,0.0892,0.0886,0.113,,0.0683,0.0808,0.109,0.0822,0.094,0.0868,,0.0818,0.0721,0.0608,0.0836,0.0776,,0.0929
I164K,0.0526,0.0448,,,,,,0.0472,,,0.0577,,,,,,0.0532,0.0835,
I164R,0.0608,0.0521,0.0609,0.0479,,0.0563,0.0567,0.0491,0.078,0.0544,0.0582,0.0506,0.0589,,0.0513,0.0531,0.0526,0.0678,0.0519
I164S,0.0493,0.0556,0.0462,,,0.0371,,0.0389,,,0.0493,,,0.0537,0.0592,0.0603,0.0312,0.0495,
I167H,0.0841,0.0576,0.0758,,,0.0804,0.0653,,0.0673,,0.0686,0.0562,0.0642,,0.0879,,0.0707,0.0752,0.0718
I167N,0.0581,0.047,,0.0969,0.0535,0.0607,0.0618,0.0606,0.0658,,0.0477,0.0715,,,0.0652,0.0611,0.0542,,
S169G,0.0654,0.0712,,0.0505,0.0624,,0.0635,,,,0.0634,0.0566,0.0503,0.0615,,0.0427,0.0586,,0.0613
S169Q,0.049,0.0537,0.0453,0.0755,0.0588,0.0565,0.0581,0.0588,0.0501,0.0588,0.0661,,0.0572,,,0.0614,0.0632,0.0544,0.0458
S171D,0.0471,,0.0647,0.056,0.0592,0.0499,0.0677,0.0317,0.0595,0.066,0.0646,,,,0.0475,0.063,0.0524,,0.0567
